Test results: PubChem BioAssay AID1159614 (National Center for Advancing Translational Sciences (NCATS), 2016)
Screen size: about 45,000 compounds; about 65 (0.1%) were called active. Calls follow the shape of the dose curve; as a rule, active = well fitted activation curve with a large enough effect; inconclusive = small, poorly fitted or top-dose-only effect; inactive = no such curve, though single readings can be large or run the other way. Some of the results follow.

What follows are compounds tested against Galactocerebrosidase (Homo sapiens) (UniProt P54803) (assay: A Novel Cell-Based Assay to Identify Small Molecules for B -Galactocerebrosidase). Conditions: 145M-Twi-hGALC-G270D cells, HMU-beta-Gal fluorescence, 48 h; series mostly up to 57.5 µM; activation: at the top concentration.
In short: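 qHTS, 1536-well; 145M-Twi-hGALC-G270D cells (WT line also made) in DMEM/F12 + 10% FBS; compound incubation on live cells; HMU-β-gal 0.1 mM final, pH 5.2, NaTC; carbonate stop; fluorescence increase = enhanced residual activity.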
Also: 0% is about no effect; nearly all actives have a fitted effect of over 65% in size.

Sequence of UniProt P54803 (P54803 whole entry, looked up): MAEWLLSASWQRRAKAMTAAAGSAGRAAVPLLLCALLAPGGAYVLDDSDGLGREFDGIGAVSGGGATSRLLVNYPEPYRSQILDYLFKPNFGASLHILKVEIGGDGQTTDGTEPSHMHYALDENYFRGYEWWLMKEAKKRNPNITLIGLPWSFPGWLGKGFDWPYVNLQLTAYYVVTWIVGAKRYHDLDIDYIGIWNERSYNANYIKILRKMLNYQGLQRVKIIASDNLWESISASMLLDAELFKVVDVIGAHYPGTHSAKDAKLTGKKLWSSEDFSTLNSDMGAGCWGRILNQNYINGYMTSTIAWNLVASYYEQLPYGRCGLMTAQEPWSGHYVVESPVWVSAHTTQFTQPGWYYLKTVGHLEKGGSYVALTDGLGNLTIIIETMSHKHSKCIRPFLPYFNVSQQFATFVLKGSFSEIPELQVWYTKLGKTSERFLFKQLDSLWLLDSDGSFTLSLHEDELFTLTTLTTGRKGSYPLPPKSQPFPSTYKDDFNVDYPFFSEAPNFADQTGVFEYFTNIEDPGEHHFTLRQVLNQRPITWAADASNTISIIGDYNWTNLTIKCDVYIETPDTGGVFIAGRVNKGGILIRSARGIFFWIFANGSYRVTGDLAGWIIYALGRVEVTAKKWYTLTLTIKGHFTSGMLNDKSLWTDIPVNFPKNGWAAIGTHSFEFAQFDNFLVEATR

activation, inactive:
CCOc1ccc(C(=O)OCc2cc(=O)n3cc(C)sc3n2)cc1 5.28%
Cc1ccc2[nH]c3c(=O)n(CC(=O)NC(C)C)ncc3c2c1 -2.81%
COc1ccc(CNC(=O)CSc2ncc(S(=O)(=O)c3ccc(Br)cc3)c(=O)[nH]2)cc1 3.02%
COC(=O)Nc1nc2ccc(Sc3ccccc3)cc2[nH]1 1.06%
COC(=O)c1cccc(Nc2nn3c(=O)c4cc5c(cc4nc3s2)OCO5)c1 -1.34%
COc1ccc(S(=O)(=O)NCC(c2ccc(N(C)C)cc2)N2CCOCC2)cc1 (stereo not drawn) -7.78%
COc1ccc(-c2[nH]c3ccccc3c2SCCNC(=O)c2ccc(S(=O)(=O)N(C)C)cc2)cc1 -17.4%
NC(=O)c1ccccc1NC(=O)Cn1nc(Cc2cccnc2)c2ccccc2c1=O -17.7%
CCOc1ccc(CNC(=O)c2sc3ncnc(N(C)C4CCCCC4)c3c2C)cc1 6.13%
O=C(CSC1=Nc2ccccc2N=C(c2ccc(F)cc2)C1)NCc1ccccc1Cl -8.92%
CCCCOc1ccc(CNC(=O)Cc2ccc(NC(=O)N3CCSc4ncccc43)cc2)cc1 -34%
CCNc1oc(-c2ccc(COc3ccc(Cl)cc3)o2)nc1C#N -9.65%
Cc1nn(-c2ccc(N3CCOCC3)nn2)c(C)c1CCC(=O)NCc1ccccc1F -3.93%
COC(=O)c1cc2oc(C)cc2n1CC(=O)Nc1cc(Cl)ccc1OC -13%
COc1ccc(CNC(=O)c2cc3cccc4c3n2CC(C)S4)c(OC)c1 (stereo not drawn) -23.1%
Cc1cccc(NC(=O)CSc2nc(=O)n(Cc3ccccn3)c3c2CCC3)c1C -1.06%
COc1ccc(C(=O)Oc2cc(-c3ccc4c(c3)OCO4)cc(=O)c3c(C)oc(C)c23)cc1 -11.1%
O=C(CSc1ncc(CO)n1Cc1ccc(Cl)cc1)NCc1ccc(F)cc1 -14.2%
COc1ccc(S(=O)(=O)N2CCN(CC(=O)Nc3ccc(Cl)c(C(F)(F)F)c3)CC2)cc1 -6.13%
Cc1ccc(Cl)cc1NC(=O)CSc1nc2c(c(=O)[nH]1)CN(Cc1ccccc1)CC2 -7.8%
CCOc1ccc(NC(=O)N(C(C)C)C2CCN(C(C)=O)CC2)cc1 -9.41%
CCOC(=O)c1ccc(NC(=O)CCc2c(C)nc3c(-c4ccc(F)cc4)c(C)nn3c2C)cc1 -4.51%
COc1ccc(NC(=O)C2Cc3ccccc3N2C(=O)c2ccccc2)cc1OC (stereo not drawn) 13.3%
Cc1ccccc1C(=O)Nc1ccc(C(=O)OCc2cc(=O)n3nc(C(C)C)sc3n2)cc1 -12.1%
Cc1ccc(-c2onc(C)c2C)cc1S(=O)(=O)Nc1ccc(Cl)cn1 0.55%
CSc1cccc(-c2nnc(NC(=O)c3ccc4c(c3)OCCO4)o2)c1 1.81%
CC(C)CC(=O)NCc1nc2cccnc2n1Cc1ccccc1 -7.35%
CCOC(=O)c1cc(-c2ccccc2)n(CC(=O)Nc2ccc(OC)cc2OC)c1C -17.2%
CCOc1ccc(NC(=O)C2CCN(S(=O)(=O)c3cc(-c4noc(C)n4)ccc3C)CC2)cc1 -6.56%
Cc1ccccc1CNC(=O)c1ccc(Cn2c(SCc3cccc(F)c3)nc3cccnc32)cc1 -5.98%
COc1ccc(-c2ccc(NS(=O)(=O)c3cccc(Cl)c3)cc2)nn1 -10.4%
O=C(CCc1cn(Cc2ccccc2F)c2ccccc12)NCc1ccc(Cl)cc1 -7.42%
CCOC(=O)c1nc(Nc2ccc(C(=O)OCC(C)C)cc2)c2ccccc2n1 1.21%
COc1cccc(NC(=O)N2CCC(n3c(C)nc4cccnc43)CC2)c1 -7.18%
O=C(NCc1ccccc1Cl)C1CCC(CNS(=O)(=O)c2ccc(Cl)cc2)CC1 (stereo not drawn) -12.8%
COc1ccc(-c2cc(=S)ss2)cc1 -5.54%
COc1cccc(Cn2c(=O)n(-c3ccc(C)c(F)c3)c(=O)c3sc4ccccc4c32)c1 -14.3%
Cc1ccc2oc(C(=O)N(Cc3cccc(F)c3)C3CCS(=O)(=O)C3)c(C)c2c1 (stereo not drawn) -7.39%
COc1ccc(N2CCN(C(=O)c3cc(S(=O)(=O)N4CCCCCC4)cn3C)CC2)cc1 -11.6%
Cc1ccc(N(CC(C)C)S(=O)(=O)c2nnc(NC(=O)c3ccco3)s2)cc1 -2.85%
O=C(COC(=O)C(Cc1c[nH]c2ccccc12)NC(=O)c1ccc(Br)cc1)c1ccc(Cl)cc1 (stereo not drawn) -5.66%
Cc1cc(C(C)(C)C)c(O)c(C(C)(C)C)c1 -11.8%
Cc1ccc(-c2cc(C(F)(F)F)n3nc(-c4ccc(Cl)cc4)cc3n2)cc1 -15.2%
COc1ccc(CNC(=O)C2CCN(Cc3nc(-c4ccc(OC)c(OC)c4)oc3C)CC2)cc1 -13%
COc1cccc(OC)c1C(=O)Nc1nnc(C)s1 7.95%
CCOc1ccc(C(=O)c2cn(Cc3ccccc3OC)c3cc4c(cc3c2=O)OCCO4)cc1 -11%
CCC(=O)N1CCc2cc(S(=O)(=O)CCC(=O)Nc3ccc(Cl)c(C(F)(F)F)c3)ccc21 -5.7%
CCCCN(CC)CCNC(=O)c1cn(CCOC)c(=O)c2c1c1ccccc1n2C -6%
COc1ccccc1N1CCN(C(=O)c2sc3nc4n(c(=O)c3c2C)CCC4)CC1 -15.8%
CCOC(=O)c1ccc(NC(=O)CSc2ccc(-c3sc(C)nc3C)nn2)cc1 -17.8%
O=C(NC1CC(=O)N(c2cccc(F)c2)C1)c1ccc(S(=O)(=O)N2CCOCC2)cc1 (stereo not drawn) -7.86%
Cc1ccc(NC(=O)Cn2c(=O)oc3ccccc32)cc1Cl 0.533%
COc1ccc(C(=O)c2oc3ccccc3c2NC(=O)c2ccc(F)cc2)cc1 -26.7%
O=C(c1cn(CCOc2ccccc2F)c2ccccc12)C1CCCCC1 -21.6%
COc1ccc(Cn2ccc3nc(C)c(C(=O)N4CCN(c5ccccc5)CC4)cc3c2=O)cc1 -7.71%
CCOC(=O)c1ccc(NC(=O)c2cn(-c3ccccc3)nc2-c2ccc(Br)cc2)cc1 11%
CCc1nonc1NC(=O)c1oc2cc(C)c(Cl)cc2c1C -0.552%
Cc1ccc(Nc2sc(C(=O)c3ccccc3)c(N)c2C(=O)NC(C)C)cc1 10.5%
Cc1cccc(Cn2cc(C(=O)c3ccccc3)c(=O)c3cc4c(cc32)OCO4)c1 -0.448%
COc1ccc(NC(=O)CSc2oc(-c3cccs3)nc2S(=O)(=O)c2ccc(Br)cc2)c(OC)c1 -12.6%
CN/C(=C\[N+](=O)[O-])NCCSCc1ccc(CN(C)C)o1 -16.3%
CCOc1ccc(NS(=O)(=O)c2ccc(N)cc2)nn1 -5.42%
O=C(CCn1cnc2ccccc2c1=O)NCc1ccccc1 -1.45%
